The IC50 comes from the fitted curve, where viability falls to half of the control; a fit beyond the top or the lowest dose is shown as a bound at that dose. AUC is the area under the same curve over the 256-fold range up to the top dose, as a fraction: 1 means no effect, lower means more sensitive. Where an entry number is given, a second screen of the drug exists; the two often differ.
Compound: CS(=O)(=O)N1CCN(Cc2cc3nc(-c4cccc5[nH]ncc45)nc(N4CCOCC4)c3s2)CC1 [GDC0941]
Experiment: Viability of human cancer cell lines after 72 h of drug (GDSC screen)
Conditions: screen: GDSC drug entry 1058
Experimental: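 Human cancer cell lines in 384-well plates, medium with 10% serum, drug for 72 h over a 256-fold dose range (nine 2-fold or five 4-fold steps up to the top dose). Adherent lines were fixed and stained with the nucleic acid dye Syto60, suspension lines read with resazurin; signal relative to control wells, capped at 0 and 100%. One two-parameter sigmoid per drug and line, fitted in a mixed model over all curves with the slope shared within a line.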

Row | Cell Line | AUC | IC50 [µM]
1 | CESS (acute myeloid leukaemia, suspension, top dose 4 µM) | 0.966 | > 4
2 | KYSE-510 (oesophagus, adherent, top dose 4 µM) | 0.9 | 3.59
3 | CAPAN-1 (pancreas, adherent, top dose 4 µM) | 0.918 | > 4
4 | NCI-H211 (small cell lung carcinoma, adherent, top dose 4 µM) | 0.98 | > 4
5 | KG-1 (acute myeloid leukaemia, suspension, top dose 4 µM) | 0.972 | > 4
6 | EW-11 (Ewing sarcoma, adherent, top dose 4 µM) | 0.891 | > 4
7 | BICR10 (head and neck, adherent, top dose 4 µM) | 0.612 | 0.534
8 | GMS-10 (glioma, adherent, top dose 4 µM) | 0.979 | > 4
9 | CHSA0108 (chondrosarcoma, adherent, top dose 4 µM) | 0.621 | 0.568
10 | LB1047-RCC (kidney, adherent, top dose 4 µM) | 0.615 | 0.541
11 | JIMT-1 (breast, adherent, top dose 4 µM) | 0.595 | 0.467
12 | SNB75 (glioma, adherent, top dose 4 µM) | 0.768 | 2.24
13 | LCLC-103H (large cell lung carcinoma, adherent, top dose 2 µM) | 0.961 | > 2
14 | NCI-H1651 (lung adenocarcinoma, adherent, top dose 4 µM) | 0.982 | > 4
15 | VAL (B-cell lymphoma, suspension, top dose 4 µM) | 0.761 | 1.43
16 | OCI-AML5 (acute myeloid leukaemia, suspension, top dose 4 µM) | 0.757 | 1.27
17 | HCT-15 (large intestine, adherent, top dose 4 µM) | 0.694 | 0.913
18 | UACC-893 (breast, adherent, top dose 2 µM) | 0.937 | > 2
19 | HAL-01 (lymphoblastic leukaemia, suspension, top dose 4 µM) | 0.242 | 0.0504
20 | SK-GT-2 (stomach, adherent, top dose 4 µM) | 0.773 | 1.63
21 | SF268 (glioma, adherent, top dose 4 µM) | 0.893 | > 4

Row | Cell Line | AUC | IC50 [µM]
22 | COLO-824 (breast, adherent, top dose 4 µM) | 0.943 | > 4
23 | HT55 (large intestine, adherent, top dose 4 µM) | 0.905 | > 4
24 | RERF-LC-MS (lung adenocarcinoma, adherent, top dose 4 µM) | 0.854 | 3.3
25 | ES1 (Ewing sarcoma, adherent, top dose 4 µM) | 0.725 | 1.08
26 | BB30-HNC (head and neck, adherent, top dose 4 µM) | 0.633 | 0.576
27 | OVKATE (ovary, adherent, top dose 4 µM) | 0.869 | > 4
28 | SK-MEL-1 (melanoma, suspension, top dose 4 µM) | 0.993 | > 4
29 | no-11 (glioma, adherent, top dose 4 µM) | 0.892 | > 4
30 | LB647-SCLC (small cell lung carcinoma, semi-adherent, top dose 4 µM) | 0.891 | > 4
31 | Ca9-22 (head and neck, adherent, top dose 4 µM) | 0.923 | > 4
32 | NCI-H720 (lung carcinoid, suspension, top dose 4 µM) | 0.637 | 0.576
33 | MHH-NB-11 (neuroblastoma, adherent, top dose 4 µM) | 0.847 | 3.39
34 | RKN (ovary, adherent, top dose 4 µM) | 0.7 | 0.946
35 | MDA-MB-436 (breast, adherent, top dose 4 µM) | 0.782 | 2.14
36 | WM1552C (melanoma, adherent, top dose 4 µM) | 0.884 | > 4
37 | OE19 (oesophagus, adherent, top dose 4 µM) | 0.917 | > 4
38 | ZR-75-30 (breast, adherent, top dose 4 µM) | 0.806 | 3.49
39 | NCI-H841 (small cell lung carcinoma, adherent, top dose 4 µM) | 0.889 | > 4
40 | EW-7 (Ewing sarcoma, semi-adherent, top dose 4 µM) | 0.719 | 0.952
41 | HCC1806 (breast, adherent, top dose 4 µM) | 0.988 | > 4
42 | KCL-22 (chronic myeloid leukaemia, suspension, top dose 4 µM) | 0.983 | > 4

Row | Cell Line | AUC | IC50 [µM]
43 | CAL-62 (thyroid, adherent, top dose 4 µM) | 0.846 | 2.71
44 | BE2-M17 (neuroblastoma, adherent, top dose 4 µM) | 0.919 | > 4
45 | COLO-668 (small cell lung carcinoma, adherent, top dose 4 µM) | 0.982 | > 4
46 | SJSA-1 (bone, adherent, top dose 4 µM) | 0.798 | 2.19
47 | CP50-MEL-B (melanoma, adherent, top dose 4 µM) | 0.874 | 3.79
48 | NCI-H2172 (non-small cell lung carcinoma, adherent, top dose 4 µM) | 0.939 | > 4
49 | NB5 (neuroblastoma, adherent, top dose 4 µM) | 0.674 | 0.769
50 | 42-MG-BA (glioma, adherent, top dose 4 µM) | 0.746 | 1.34
51 | KON (head and neck, adherent, top dose 4 µM) | 0.704 | 0.926
52 | T98G (glioma, adherent, top dose 4 µM) | 0.776 | 1.47
53 | PFSK-1 (medulloblastoma, adherent, top dose 4 µM) | 0.721 | 1.11
54 | TC-YIK (cervix, suspension, top dose 4 µM) | 0.887 | 3.42
55 | NCI-H2452 (mesothelioma, adherent, top dose 4 µM) | 0.925 | > 4
56 | NCI-H1869 (lung squamous cell carcinoma, adherent, top dose 4 µM) | 0.844 | 3.43
57 | GAMG (glioma, adherent, top dose 4 µM) | 0.577 | 0.411
58 | IST-MEL1 (melanoma, adherent, top dose 4 µM) | 0.902 | > 4
59 | NCI-H524 (small cell lung carcinoma, suspension, top dose 4 µM) | 0.806 | 1.78
60 | H2591 (mesothelioma, adherent, top dose 2 µM) | 0.793 | 1.23
61 | HOS (osteosarcoma, adherent, top dose 4 µM) | 0.804 | 1.62

From the supplement of paper PMC4967469
